Laboratory results from PubChem BioAssay (NCI).
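Tested at 5 concentrations; 48 h exposure; 96-well plates; endpoints linearly interpolated, else capped at highest concentration. Abbreviation: GI50, concentration required for 50% inhibition of growth.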 The source holds more than one record for some entries. The list is limited to them. The source may hold further records. The tests behind the records often covered other concentration ranges, which the source does not state; some values may only mark the edge of a range.

System: MDA-MB-468 breast
Test: DTP human tumour cell line panel, 48 h

Structure (SMILES): CC[C@H](C)[C@H](NC(=O)[C@H]1CCCCN1C)C(=O)N(C)[C@H](C[C@@H](OC(C)=O)c1nc(C(=O)N[C@@H](Cc2ccccc2)C[C@H](C)C(=O)OC)cs1)C(C)C
- GI50: 0.238 nM and 2.5 nM
